Measurements reported in the supplement of paper PMC11876631.
Numbering of substitutions follows the chain as printed. Names and notes keep the numbering of the source. ± gives the standard deviation of the averaged measurements. Laboratory Escherichia coli strains with one amino-acid change in an essential protein, pooled on minimal glucose agar with carbenicillin or gentamicin at twice the control MIC (plus kanamycin and chloramphenicol for the plasmids), 48 h. Fold change of barcode share against drug-free plates; higher = less susceptible. Active = above 20 in both replicates (the paper's putatively resistant). '<' = one read or none on drug, '>' = one read or none on a drug-free plate. Shares are relative, so most strains fall below 1 when a few take over. Listed are strains with at least 15 reads on both drug-free plates, and hits; most hits rest on fewer reference reads. Replicate rank correlation about 0.5. Edits are read from barcodes.

B1: serB I65A (protein)
chain: MPNITWCDLPEDVSLWPGLPLSLSGDEVMPLDYHAGRSGWLLYGRGLDKQRLTQYQSKLGAAMVAVAAWCVEDYQVIRLAGSLTARATRLAHEAQLDVAPLGKIPHLRTPGLLVMDMDSTAIQIECIDEIAKLAGTGEMVAEVTERAMRGELDFTASLRSRVATLKGADANILQQVRENLPLMPGLTQLVLKLETLGWKVAIASGGFTFFAEYLRDKLRLTAVVANELEIMDGKFTGNVIGDIVDAQYKAKTLTRLAQEYEIPLAQTVAIGDGANDLPMIKAAGLGIAYHAKPKVNEKAEVTIRHADLMGVFCILSGSLNQK
B2: serB V71W (protein)
chain: B1 chain with A65I, V71W
B3: serB V71Q (protein)
chain: B1 chain with A65I, V71Q
B4: serB V71A (protein)
chain: B1 chain with A65I, V71A
B5: serB I65P (protein)
chain: B1 chain with A65P
B6: secY L285D (protein)
chain: MAKQPGLDFQSAKGGLGELKRRLLFVIGALIVFRIGSFIPIPGIDAAVLAKLLEQQRGTIIEMFNMFSGGALSRASIFALGIMPYISASIIIQLLTVVHPTLAEIKKEGESGRRKISQYTRYGTLVLAIFQSIGIATGLPNMPGMQGLVINPGFAFYFTAVVSLVTGTMFLMWLGEQITERGIGNGISIIIFAGIVAGLPPAIAHTIEQARQGDLHFLVLLLVAVLVFAVTFFVVFVERGQRRIVVNYAKRQQGRRVYAAQSTHLPLKVNMAGVIPAIFASSIIDFPATIASWFGGGTGWNWLTTISLYLQPGQPLYVLLYASAIIFFCFFYTALVFNPRETADNLKKSGAFVPGIRPGEQTAKYIDKVMTRLTLVGALYITFICLIPEFMRDAMKVPFYFGGTSLLIVVVVIMDFMAQVQTLMMSSQYESALKKANLKGYGR
B7: secY F286P (protein)
chain: B6 chain with D285L, F286P
B8: secY L285P (protein)
chain: B6 chain with D285P
B9: secY F286A (protein)
chain: B6 chain with D285L, F286A
B10: secY F286Q (protein)
chain: B6 chain with D285L, F286Q
B11: secY F286D (protein)
chain: B6 chain with D285L, F286D
B12: secY F286W (protein)
chain: B6 chain with D285L, F286W

Target: Escherichia coli (laboratory strain)
Assay: barcode share on antibiotic plates over drug-free plates; higher = less susceptible
Details: antibiotic: carbenicillin; 2× MIC (3.1 µg/mL)
Method: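 A pool of E. coli strains, each edited to carry one amino-acid change in an essential protein, was grown for 48 h on minimal glucose agar with or without antibiotic; strain barcodes were sequenced; mean of two replicates.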

Protein	fold change of barcode share
B1	0.334 ± 0.093
B2	0.5 ± 0.054
B3	0.392 ± 0.15
B4	0.566 ± 0.08
B5	0.227 ± 0.068
B6	0.101 ± 0.056
B7	0.339 ± 0.076
B8	0.335 ± 0.21
B9	0.471 ± 0.2
B10	0.448 ± 0.14
B11	0.23 ± 0.016
B12	0.181 ± 0.012

Same assay, conditions: antibiotic: gentamicin; 2× MIC (MIC 0.45 µg/mL)

Protein	fold change of barcode share
B1	0.0139 ± 0.0077
B2	0.00859 ± 0.0069
B3	0.0136 ± 0.003
B4	0.0103 ± 0.0014
B5	< 0.00903
B6	< 0.01
B7	< 0.0033
B8	0.347 ± 0.45
B9	< 0.00494
B10	0.00757 ± 0.0052
B11	< 0.00534
B12	< 0.00447
